Measured values from PubChem BioAssay AID686978 (National Center for Advancing Translational Sciences (NCATS), 2013).
The campaign covered roughly 420,000 compounds. About 64,000 (15%) were called active. Inconclusive results, whose numbers are uncertain, are shown with a selection of clear calls. The call rests on the fitted dose curve; in most records, active means well fitted inhibition curve with a large enough effect; inconclusive means small, poorly fitted or top-dose-only effect; inactive means flat fitted curve, though single readings scatter. Potencies of inconclusive entries are left out as doubtful fits.

test: qHTS for Inhibitors of human tyrosyl-DNA phosphodiesterase 1 (TDP1): qHTS in cells in absence of CPT; conditions: DT40 Tdp1-/- hTDP1 cells, no CPT, ATP luminescence, 48 h; activity change, negative = growth inhibition: at 46.2 µM (top of the series) unless noted; further: nearly all actives have a fitted effect of over 55% in size
Outline: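 Chicken DT40 Tdp1-/- cells stably complemented with human TDP1 were seeded at 400 cells/well with DMSO in place of 20 nM camptothecin. After compound pinning, cells grew at least 48 hr at 37 °C; viability read by CellTiter-Glo luminescence.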
On the % scale 0 is the no-effect control and ±100 the full control effect; potency means the concentration at half of the fitted maximal effect; tags describe the fitted curve by direction and shape.

| SMILES | Potency | activity change, negative = growth inhibition |
| --- | --- | --- |
| CCCCCC(=O)NC(=S)NNC(=O)CC | inconclusive [inhibitor, partial curve] | – |
| COc1cccc(/C=C/C(=O)Nc2ccc3nc4n(c(=O)c3c2)CCCC4)c1OC | active: 18.4 µM | – |
| Cc1cc(C(=O)COC(=O)c2cccs2)c(C)n1-c1c(C)n(C)n(-c2ccccc2)c1=O | – | inactive: -23.7% |
| CC(C)C[C@H]1COc2cccc(N3CCN(Cc4ccccc4F)CC3)c2S(=O)(=O)N1 | active: 18.4 µM | – |
| COc1ccccc1N1CCN(c2nc(CNC(=O)c3cc(C)oc3C)nc3ccccc23)CC1 | inconclusive [inhibitor, single point] | – |
| COc1cc2nc(Cl)nc(NC3CCN(C)CC3)c2cc1OC | inconclusive [inhibitor, single point] | – |
| CCn1c(=O)c2sccc2n2c(CCCC(=O)N3CCN(c4ccc(OC)cc4)CC3)nnc12 | inconclusive [inhibitor, single point] | – |
| CCOC(=O)CSc1nc(-c2ccccc2)cc(C(F)(F)F)n1 | inconclusive [inhibitor, single point] | – |
| CCOCCCNC(=O)C(c1ccccc1)N(Cc1cccs1)C(=O)c1ccc(NC(C)=O)cc1 (stereo unspecified) | active: 16.4 µM | – |
| COc1ccc(-n2c(=O)n(Cc3ccccc3)c(=O)c3[nH]cnc32)cc1 | inconclusive [inhibitor, single point] | – |
| COc1ccc(N2CCN(C(=O)c3c(C)oc4ncnc(N5CCCCC5)c34)CC2)cc1 | active: 14.6 µM | – |
| CCc1cccc(NC(=O)c2nnn(Cc3ccc(SC)cc3)c2N)c1 | – | inactive: -1.77% |
| COc1cccc(N2C(=O)C(CC(=O)Nc3ccc(Cl)cc3)N(Cc3ccc4c(c3)OCO4)C2=O)c1 (stereo unspecified) | inconclusive [inhibitor, single point] | – |
| CC(C)(C)S(=O)N1Cc2cc(C(=O)N[C@@H]3CCN(Cc4ccccc4)C3)nc(-c3cccc(-c4cc5ccccc5o4)c3)c2[C@@H]1CCO (stereo partly specified) | active: 23.1 µM | – |
| O=[N+]([O-])c1ccc(-n2cnc3ccccc32)c([N+](=O)[O-])c1 | inconclusive [inhibitor, single point] | – |
| Cc1cc(S(=O)(=O)NCc2ccccn2)c(Cl)cc1Cl | – | inactive: -22.2% |
| CC(C)NC(=O)N1CC(c2ccccc2)C(c2ccc(Cl)cc2)=N1 (stereo unspecified) | active: 18.4 µM | – |
| COc1ccc(C(=O)N/C(=C/c2cccs2)c2nc3ccccc3[nH]2)cc1OC | inconclusive [inhibitor, single point] | – |
| O=C(Nn1c(O)c(C=C2N=c3ccccc3=N2)sc1=S)c1cccc(Cl)c1 | inconclusive [inhibitor, single point] | – |
| COC(=O)N1CCC2(CC1)CCN(C(c1ccccc1)c1ccccc1)CC2 | inconclusive [inhibitor, partial curve] | – |
| Cc1c(-n2c(SCC(=O)O)nnc2-c2ccccc2Cl)c(=O)n(-c2ccccc2)n1C | – | inactive: 0.154% |
| Cc1ccc(C(=O)N2CCC(C)CC2)cc1S(=O)(=O)N1CCCCC1 | inconclusive [inhibitor, single point] | – |
| COc1cc(OC)cc(C(=O)NC2CCCN(Cc3ccc(Cl)cc3)C2)c1 (stereo unspecified) | inconclusive [inhibitor, single point] | – |

| SMILES | Potency | activity change, negative = growth inhibition |
| --- | --- | --- |
| COc1ccccc1CN(C)C(C)C(=O)Nc1cccc(C(C)=O)c1 (stereo unspecified) | inconclusive [inhibitor, single point] | – |
| O=C(Nc1nnc(SCC(=O)N2CCCc3ccccc32)s1)c1ccc2ccccc2c1 | inconclusive [inhibitor, single point] | – |
| O=C(Nc1ccc(Br)cc1)C1CCCN(S(=O)(=O)c2ccc(Br)s2)C1 (stereo unspecified) | inconclusive [inhibitor, partial curve] | – |
| N#Cc1c(NC(=O)CSc2nc3ccccc3c(=O)n2Cc2ccco2)sc2c1CCCC2 | inconclusive [inhibitor, single point] | – |
| CCCCN(CC)C(=O)/C=C/c1cccc([N+](=O)[O-])c1 | inconclusive [inhibitor, single point] | – |
| Fc1cccc2sc(Nc3nnc(-c4ccco4)o3)nc12 | active: 23.1 µM | – |
| Cn1cc2c(=O)n(/N=C/c3ccccc3)cnc2n1 | – | inactive: -8.07% |
| COc1cc(=O)n2c(c1C(=O)N(C)Cc1nonc1C)CCN(Cc1ccc(F)cc1)CC2 | – | inactive: -14.9% |
| Clc1ccccc1Cc1noc(CN2CCCCC2CCc2ccccn2)n1 (stereo unspecified) | inconclusive [inhibitor, single point] | – |
| Cc1ccc(S(=O)(=O)NCCC(=O)N2CCN(C/C=C/c3ccccc3)CC2)cc1 | active: 14.6 µM | – |
| COC(=O)c1ccc(NS(=O)(=O)c2cccc3cccnc23)cc1 | – | inactive: -24.9% |
| CC(C)(C)CC(C)(C)c1ccc(O)c(CN2CCN(CCC#N)CC2)c1 | active: 23.1 µM | – |
| Cc1ccc([C@H]2C[C@H](n3cc(C4CC4)nn3)[C@@H](O)CN2C(=O)C2CCCCC2)cc1 | – | inactive: 4.01% |
| Cc1cc(C=O)c(C)n1-c1ccc(N2CCOCC2)cc1 | inconclusive [inhibitor, single point] | – |
| O=C(C1CCCN(Cc2cccs2)C1)N1CCCCCC1 (stereo unspecified) | inconclusive [inhibitor, full curve, poor fit] | – |
| Cc1ccc(C(=O)Cn2c(N3CCOCC3)nc3c2c(=O)n(C)c(=O)n3C)cc1 | – | inactive: -12.6% |
| O=C(Cn1c(=O)[nH]c2sc3c(c2c1=O)CCCC3)NCC1CCCO1 (stereo unspecified) | – | inactive: 0.276% |
| COc1ccc(C=Cc2ccc3ccccc3n2)c(OC)c1 | active: 23.1 µM | – |
| Cc1nnc(NC(=O)c2sc3ccccc3c2Cl)s1 | inconclusive [inhibitor, full curve] | – |
| COc1ccc2c(c1)cc1c(=O)n(CC(=O)NCCCN3CCOCC3)nc(C)n12 | – | inactive: -19.1% |
| CC(OC(=O)C1CCN(S(=O)(=O)c2ccc(C(C)(C)C)cc2)CC1)C(=O)N1CCOCC1 (stereo unspecified) | inconclusive [inhibitor, single point] | – |
| COc1ccc(NC(=S)Nc2ccc(OCc3ccccc3)cc2)c(OC)c1 | active: 25.9 µM | – |
| CC12CCC(C(=O)N/N=C/c3ccc(O)cc3O)(OC1=O)C2(C)C (stereo unspecified) | active: 10.3 µM | – |
